Results on 172 sequences are retold here after publication PMC6212790.

The other results are listed elsewhere or left out. At the low end of the ranking, values are background and their order means little.

This test deals with T1, GST-Rok (full length) (UniProt O34857).
T1 sequence: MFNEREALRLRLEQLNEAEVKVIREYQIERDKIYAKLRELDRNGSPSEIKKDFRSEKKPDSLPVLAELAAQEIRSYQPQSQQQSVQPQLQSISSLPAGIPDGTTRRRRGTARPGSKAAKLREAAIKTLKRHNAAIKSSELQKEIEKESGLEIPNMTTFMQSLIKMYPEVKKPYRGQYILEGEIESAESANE
Briefly: protein binding microarray.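 Note: rank score from −0.5 (least bound) to 0.5 (best bound).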 The following applies: Rok is a gene silencer of Bacillus subtilis; high values mean tight binding; most listed sequences are background and not binding sites; double strand, one strand shown.
Consider AACGTATG, for which the binding signal is 0.113 E-score. As for ATGAAGTC, the binding signal was -0.0225 E-score. On to CTTGGCAA, for which the binding signal came out at 0.103 E-score. For GAAGAACC, the binding signal is -0.00102 E-score. Take AGGATGGG: the binding signal was -0.144 E-score. As for CGGGGTTA, the figure is -0.232 E-score.

As for TCGCTAAA, the binding signal was found to be 0.187 E-score. As for GTGACATA, the figure is 0.281 E-score; as for GAGTATGA, 0.0641 E-score; as for GTAGAAAA, 0.387 E-score. Regarding TACTTAGA, the binding signal turned out to be 0.3 E-score. The same measure for CATCATAC: 0.0476 E-score. As for CGCACGAC, the binding signal was -0.119 E-score. In turn, AACGCGTA showed a binding signal of 0.0461 E-score. The same measure for AAGTTGAA: -0.0679 E-score; for ACTAAGCA: 0.114 E-score; for CGGATCTA: 0.157 E-score.

TCAGCCCA registered a binding signal of -0.215 E-score. As for CAACTACG, the figure is 0.12 E-score; as for ACGAACCC, -0.12 E-score; as for AACAACTT, 0.174 E-score. As for TCCCGGCA, the figure is -0.136 E-score.

In the case of TACTATAA, the binding signal stood at 0.439 E-score. As for ATGGCCAG, the figure is -0.144 E-score; as for AAGTAGAT, 0.374 E-score; as for GAGGGACA, -0.267 E-score.

Consider GACCGTTA, for which the binding signal is -0.0188 E-score. As for CATTGGAG, the figure is -0.192 E-score. As for AATGACCG, the figure is -0.0639 E-score.

The sequence CAAGGGGC returned a binding signal of -0.472 E-score. As for AATGTCAC, the figure is 0.0726 E-score; as for GCGCCTAA, -0.108 E-score. As for CATTACTC, the figure is 0.136 E-score; as for CAACGTAC, 0.0498 E-score; as for AAAACCTG, 0.0684 E-score. Consider CATACGAG, for which the binding signal worked out at 0.069 E-score. The same measure for AGCGTTGC: -0.159 E-score; for ACTTTGGC: -0.0107 E-score. As for AAAATCGC, the figure is 0.0967 E-score. The same measure for AGCTAGAT: 0.215 E-score. Take GGTCCTCA: the binding signal is -0.174 E-score. In turn, GGCTGAAC gave a binding signal of -0.117 E-score.

TCATGAAA: the binding signal was -0.0419 E-score. As for CGTAGACG, the figure is -0.174 E-score; as for ACTCTGAC, -0.144 E-score; as for TACCATAA, 0.336 E-score. In turn, ATGATACC returned a binding signal of 0.168 E-score. As for AGGGCGGG, the figure is -0.388 E-score; as for GAGTTTAC, 0.189 E-score; as for ATATTATC, 0.319 E-score. In the case of CAGTGATG, the binding signal is -0.204 E-score.

In turn, GCAGCACC returned a binding signal of -0.0543 E-score. As for CGACTCAG, the figure is -0.108 E-score; as for ACTGGACT, -0.0397 E-score. As for TACCCTAA, the binding signal was -0.136 E-score. The same measure for CCGCGACC: -0.307 E-score; for AAGGCGCG: -0.258 E-score.

CACACTGG displayed a binding signal of -0.155 E-score. As to ACAGGTAT, the binding signal worked out at 0.164 E-score.

In turn, GGAATCAA gave a binding signal of 0.103 E-score. The same measure for AAATGCGG: 0.0159 E-score; for ACATGTGC: -0.158 E-score. Take AGACGACT: the binding signal was -0.0474 E-score. The same measure for ATGTTGCG: 0.176 E-score; for ATTTACAA: 0.368 E-score. The same measure for CTCGACTA: -0.132 E-score; for AACCCGGC: -0.192 E-score. Regarding GGGGTCCA, the binding signal is -0.48 E-score. As to CATCATCA, the binding signal is -0.0806 E-score. As for AAATCCGT, the figure is -0.0278 E-score; as for ACGTCCCT, -0.262 E-score. The same measure for ACTTGAGA: -0.000684 E-score.

For ACGGTTCC, the binding signal was -0.189 E-score. Turning to GGGCCCTA, the binding signal was -0.319 E-score. ACCCTACA came in with a binding signal of 0.0991 E-score. The same measure for AGAGTAAT: 0.197 E-score. Turning to TACTGACA, the binding signal came to 0.0395 E-score. As for TCATCGGA, the figure is -0.204 E-score; as for AGACCCGG, -0.0467 E-score. Take ACCATGCA: the binding signal stood at 0.136 E-score. The same measure for AGCTCCGG: -0.131 E-score; for AATGAGAA: 0.0614 E-score.

Sequence ATCACAAG came in with a binding signal of -0.0596 E-score. The same measure for ATGTTCCG: -0.0624 E-score. Regarding GCATTATA, the binding signal was 0.193 E-score. For GACCCCTA, the binding signal is -0.355 E-score. The same measure for ATATGCGG: 0.0379 E-score; for CATATATA: 0.38 E-score; for CCCATTAC: -0.0646 E-score. The same measure for ATTTTCTC: 0.264 E-score. As for ACCCACCC, the figure is -0.00328 E-score; as for CAATATGA, 0.0587 E-score. As for TCTCCAGA, the binding signal amounted to 0.103 E-score.

In turn, ACTTTTAA yielded a binding signal of 0.158 E-score.

In the case of GGAGGGGA, the binding signal is -0.419 E-score. On to ATTTCCAC, for which the binding signal is -0.0661 E-score. The same measure for CCCCCAGA: -0.441 E-score; for CTCAGAAC: -0.0411 E-score; for CGCTAGTA: 0.31 E-score. The same measure for CCAGTGGG: -0.319 E-score; for CCTCTCAG: -0.299 E-score.

ACACGAGA yielded a binding signal of -0.0131 E-score. With ATGCGCTG, the binding signal is 0.186 E-score. Turning to CCCCGGTC, the binding signal was -0.158 E-score.

Turning to ACTAGCCC, the binding signal was -0.103 E-score.

Regarding AACCTCAT, the binding signal was -0.155 E-score. As for TCTCTGAA, the figure is -0.0711 E-score. Sequence CAAATTAA had a binding signal of 0.107 E-score. Sequence ACTCCTCC showed a binding signal of -0.27 E-score. The same measure for CGTAGCTA: 0.365 E-score. As for GTCCACAA, the figure is -0.186 E-score; as for GTAATTCA, 0.212 E-score. The same measure for CATACGGC: -0.16 E-score. GGACTAAA: the binding signal came to 0.0714 E-score. In the case of TAAAGAGA, the binding signal was 0.0606 E-score.

For ACCGGACT, the binding signal is -0.00817 E-score. The same measure for GTGACGCA: -0.175 E-score.

For the sequence CGACGCAC, the binding signal was -0.122 E-score. As for AGATGTCC, the figure is -0.108 E-score. As for CGGGTCAA, the figure is -0.266 E-score; as for CTTATAAG, 0.217 E-score; as for ATGGCTAG, -0.0116 E-score.

The sequence CGAGTGAC registered a binding signal of -0.124 E-score. As for CAGCCCCA, the figure is -0.291 E-score; as for GCTTCGCC, -0.163 E-score. The same measure for ATTTTGAC: 0.24 E-score. As for TACAAGCA, the figure is 0.121 E-score; as for CACTACCG, 0.0654 E-score. ATAGCACA had a binding signal of 0.0233 E-score. The same measure for CCACTAGC: -0.055 E-score; for GACTCCTC: -0.334 E-score; for AGAACCCT: -0.292 E-score. The sequence ATTGCGCG displayed a binding signal of 0.00325 E-score.

As for GGGGCCCC, the binding signal was -0.464 E-score. As for ATTCAAGA, the figure is -0.114 E-score. The same measure for ACTGGGGC: -0.39 E-score; for ATAGGACA: 0.117 E-score.

GCACTGGA registered a binding signal of -0.181 E-score. As for CACACTCA, the figure is -0.00789 E-score; as for CACCCTGG, -0.288 E-score. The same measure for AGTAGGGC: 0.0918 E-score; for AGAGTGCC: -0.321 E-score.

With GTCTAGGA, the binding signal is -0.239 E-score.

In turn, ACACATGA came in with a binding signal of 0.211 E-score. The same measure for AGTCTGGC: -0.137 E-score; for ATCTATTC: 0.128 E-score. With CTCCGAGC, the binding signal was -0.206 E-score. The same measure for ACCACGGC: -0.261 E-score; for CATCAATA: -0.076 E-score. As for AGGCGCAC, the figure is -0.138 E-score; as for CTCTTGCC, -0.174 E-score; as for ATACCGCC, 0.043 E-score. On to GACCCCAC, for which the binding signal was -0.442 E-score. Turning to GTGTCGCA, the binding signal is -0.0786 E-score. As for AGATTAGC, the figure is 0.147 E-score; as for GCATCGCC, -0.439 E-score; as for AGTCCGTA, 0.0325 E-score.

For AGATAAAA, the binding signal is 0.293 E-score. The same measure for CGCAGTCC: -0.241 E-score. The same measure for GCGACGAC: -0.248 E-score.

For CCGCCCGA, the binding signal was -0.299 E-score. As for AGTGGTAC, the figure is 0.191 E-score; as for GGCGCACA, -0.198 E-score; as for ACACGCAC, -0.0836 E-score. CAACGAGA: the binding signal was 0.00134 E-score. In turn, CTAATGTA returned a binding signal of 0.184 E-score. As for ATCTATGG, the figure is 0.188 E-score; as for AAAGTGAT, 0.0523 E-score; as for ACGTCTGC, -0.0805 E-score. The same measure for GACTTCGA: -0.0722 E-score; for GTAGTCAC: 0.0191 E-score; for CCCCATGC: -0.365 E-score.
